In PubChem BioAssay AID624417 (National Center for Advancing Translational Sciences (NCATS), 2012):
The whole screen tested about 410,000 compounds, of which about 6,400 (1.6%) were called active. This list was built around the results that the source calls inconclusive (neither active nor inactive); the mix of calls is not that of the screen. Calls come from the whole dose curve; as a rule, active = well fitted inhibition curve with a large enough effect; inconclusive = small, poorly fitted or top-dose-only effect; inactive = no such curve, though single readings can be large or run the other way. A potency beside an inconclusive call is a rough fit, not a confirmed value.

target: Glucagon-like peptide 1 receptor (Homo sapiens) (UniProt P43220); experiment: qHTS of GLP-1 Receptor Inverse Agonists (Inhibition Mode); conditions: HEK293 GLP-1R CRE-luciferase, luminescence, 24 h, GLP-1R form is constitutively active; activity change, negative = inhibition: at 38.3 µM (top of the series) unless noted; note: nearly all actives have a fitted effect of over 55% in size
Sequence of UniProt P43220 (P43220 whole entry, looked up): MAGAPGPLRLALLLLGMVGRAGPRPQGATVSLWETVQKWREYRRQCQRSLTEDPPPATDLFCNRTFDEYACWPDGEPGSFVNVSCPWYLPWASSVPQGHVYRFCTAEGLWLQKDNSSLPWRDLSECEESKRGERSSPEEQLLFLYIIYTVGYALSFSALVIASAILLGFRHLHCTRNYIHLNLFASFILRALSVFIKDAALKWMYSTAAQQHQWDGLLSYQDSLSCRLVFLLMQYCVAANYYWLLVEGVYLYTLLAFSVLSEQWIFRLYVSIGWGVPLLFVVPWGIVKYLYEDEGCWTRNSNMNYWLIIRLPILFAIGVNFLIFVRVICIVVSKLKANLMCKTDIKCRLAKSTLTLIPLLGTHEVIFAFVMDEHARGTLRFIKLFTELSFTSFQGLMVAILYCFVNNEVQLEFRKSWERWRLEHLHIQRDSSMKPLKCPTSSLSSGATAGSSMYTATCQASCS
How it was run: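 Inverse agonists were sought by their lowering of basal cAMP reporter luciferase output in HEK293 cells stably carrying constitutively active human GLP-1R, after 24 h compound treatment.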
% is set by controls: 0 for no effect and ±100 for the full control effect; potency is the fitted concentration of half-maximal effect; tags give direction and shape of the fitted curve.

Potency, inactive:
CC12CCC(C(=O)N3CCCc4ccccc43)(CC1=O)C2(C)C (stereo not drawn)
COc1cc(/C=C2/C(=O)CNC2=O)ccc1O
COc1ccc(CNCCNC(=O)c2cccs2)c(OC)c1OC
Cc1ccc(Cl)cc1NC(=O)c1oc2ccc(S(=O)(=O)N(C)C3CCCCC3)cc2c1C
CCOC(=O)Cc1csc(NC(=O)CSc2nnc(C3CC3)n2C)n1
Clc1ccc(CN2CCC(c3ccccc3)CC2)cc1
COc1ccc(-c2nnc(N(C)C(=O)c3ccno3)s2)cc1
COc1ccc(C2C(C#N)=C(N)OC(C(C)(C)C)=C2C#N)cc1OC (stereo not drawn)
CCCc1nn2c(=O)cc(COC(=O)c3ccccc3NC(=O)c3cccs3)nc2s1
CCOc1ccc(-n2c(=O)c3c(C)c(C)sc3n(CC(=O)N(CC)Cc3ccccc3)c2=O)cc1
O=C(CNS(=O)(=O)/C=C/c1ccccc1)OCC(=O)N1CCC(Cc2ccccc2)CC1

Potency, active:
COc1ccc(N(CC(=O)NC2CC3CCC2C3)S(=O)(=O)c2ccc(C)cc2)cc1 (stereo not drawn) 10 µM
Cc1cc(C)cc(Nc2nc(-c3ccc(S(=O)(=O)N4CCCC4)cc3)cs2)c1 3.55 µM
CCCNC(=S)N1CCC(Cc2ccccc2)CC1 7.08 µM

Potency, inconclusive:
COc1ccccc1N(CC(=O)Nc1ccc2c(c1)OCO2)S(=O)(=O)c1ccccc1 11.2 µM [inhibitor, single point]
O=C1CSC(=S)N1Nc1ccccc1 7.94 µM [inhibitor, partial curve, poor fit]
CSc1ccc(/C=C/c2nc3ccccc3n2S(=O)(=O)c2cccc(Cl)c2)cc1 11.2 µM [inhibitor, partial curve, poor fit]
Cc1ccc(-c2nc3cnccn3c2Nc2ccc3c(c2)OCO3)cc1 10 µM [inhibitor, single point]
N/C(CN1CCCCC1)=N\S(=O)(=O)c1cc(Cl)cc(Cl)c1 28.2 µM [inhibitor, single point]
CCc1c(C)[nH]c(C(=O)OCc2ccccc2)c1C 28.2 µM [inhibitor, single point]
Cc1nn(C(C)C(=O)N2CCN(c3ccc(Cl)cc3)CC2)c(=O)c2cc3occc3n12 (stereo not drawn) 11.2 µM [inhibitor, single point]
Cc1cccc(CS(=O)(=O)c2ncc(Cl)c(C(=O)Nc3c(C)cccc3C)n2)c1 25.1 µM [inhibitor, single point]
CCOC(=O)N1CCC(Nc2c(N3CCN(c4cc(Cl)ccc4C)CC3)c(=O)c2=O)CC1 3.98 µM [inhibitor, partial curve, poor fit]
COc1ccc(-c2noc(CCCOc3ccc(Cl)cc3Cl)n2)cc1 12.6 µM [inhibitor, partial curve, poor fit]
CC1CN(c2cc(-c3ccccc3)c3ccccc3n2)CC(C)O1 (stereo not drawn) 10 µM [inhibitor, partial curve, poor fit]
O=C(NC(Cc1c[nH]c2ccccc12)C(=O)Nc1ccc(OC(F)(F)F)cc1)c1cccs1 (stereo not drawn) 10 µM [inhibitor, partial curve, poor fit]
COc1ccc(NS(=O)(=O)c2c(C)[nH]c(C)c2C(=O)N2CCCCC2)cc1Cl 7.08 µM [inhibitor, partial curve, poor fit]
Cc1ccc(NC(=O)C2CCCN(S(=O)(=O)c3cccc4cccnc34)C2)cc1 (stereo not drawn) 1.78 µM [inhibitor, full curve, poor fit]
O=C(NCCN1CCCCC1)c1ccc(Oc2cc(Cl)cc(Cl)c2)o1 10 µM [inhibitor, partial curve, poor fit]
Cc1cccc2cc(CN(CC3CCCO3)S(=O)(=O)c3ccccc3)c(=O)[nH]c12 (stereo not drawn) 3.16 µM [inhibitor, partial curve, poor fit]
CCCn1nc(C(=O)N2CCc3ccccc32)c2ccccc2c1=O 28.2 µM [inhibitor, single point]
O=C(COC(=O)C12CC3CC(CC(Br)(C3)C1)C2)Nc1cccc(S(=O)(=O)N2CCOCC2)c1 8.91 µM [inhibitor, partial curve, poor fit]
O=C(Nc1ccc(N2CCOCC2)cc1)C1(c2ccc(Cl)cc2)CCC1 28.2 µM [inhibitor, single point]
CCN(c1ccccc1)S(=O)(=O)c1ccc(F)cc1C 11.2 µM [inhibitor, partial curve, poor fit]
Cc1cc(OCCCC(=O)Nc2cccc(-n3cnnn3)c2)ccc1Cl 10 µM [inhibitor, partial curve, poor fit]
Cc1cccc(NC(=O)C2CCC(CNS(=O)(=O)c3ccc(Br)s3)CC2)c1 (stereo not drawn) 5.62 µM [inhibitor, partial curve]
COc1ccc(N(C(=O)c2ccccc2)S(=O)(=O)c2cccs2)cc1 31.6 µM [inhibitor, partial curve, poor fit]
Cc1ccc(OCC(=O)Nc2ccc(Cl)c(-c3nc4ncccc4o3)c2)c(C)c1 10 µM [inhibitor, single point]
CN(c1ccc(C(=O)Nc2cccnc2)cc1)S(=O)(=O)c1ccc(Cl)cc1 10 µM [inhibitor, partial curve]
CN1CCN(c2ccccc2NC(=O)c2ccc(-c3ccccc3[N+](=O)[O-])o2)CC1 28.2 µM [inhibitor, single point]
COc1ccc(N(Cc2cccs2)C(=O)c2ccc(OCC(C)C)cc2)cc1 6.31 µM [inhibitor, partial curve, poor fit]
Cc1ccc(C2CN(C)C3(C(=O)Nc4ccccc43)C23COc2ccccc2C3=O)cc1 (stereo not drawn) 8.91 µM [inhibitor, partial curve, poor fit]
CCOC(=O)c1cc(NC(=O)Nc2ccccc2OC)c(C)nc1C 3.16 µM [inhibitor, full curve]
CCc1nc2ccc(C(=O)Nc3ccc(NC(C)=O)cc3)cn2c1N(C)CCCc1ccccc1 28.2 µM [inhibitor, single point]
Cc1ccccc1[C@H](NC1c2ccccc2C=Cc2ccccc21)P(=O)(c1ccccc1)c1ccccc1 11.2 µM [inhibitor, single point]
Cc1cc(C(=O)c2ccc3ccccc3c2)c(C)o1 28.2 µM [inhibitor, single point]
CCOc1ccccc1NC1c2ccccc2C(=O)N1Cc1ccco1 (stereo not drawn) 31.6 µM [inhibitor, single point]
COc1ccccc1Nc1nnc(SCC(=O)c2cc(C)n(CC3CCCO3)c2C)s1 (stereo not drawn) 22.4 µM [inhibitor, partial curve, poor fit]
Fc1ccc(N/N=C2/CC(c3ccccc3)Oc3ccccc32)c(F)c1 (stereo not drawn) 2.51 µM [inhibitor, full curve, poor fit]
COc1cc(NC(=O)Nc2cccc(-c3noc(C)n3)c2)cc(OC)c1OC 31.6 µM [inhibitor, single point]
CC(NC(=S)NC(=O)c1cccs1)c1ccccc1 (stereo not drawn) 12.6 µM [inhibitor, partial curve, poor fit]
COc1ccc(-c2oc3ccccc3c2C(=O)OCc2ccc(O)cc2)cc1 8.91 µM [inhibitor, partial curve, poor fit]
COc1cc(NC(=O)NC(C)(C(F)(F)F)C(F)(F)F)cc(OC)c1OC 12.6 µM [inhibitor, single point]
Nc1cc2c(cc1Cl)-c1ccccc1C2=NO 11.2 µM [inhibitor, single point]
CCC(C(=O)O/N=C(\N)c1ccccc1)c1ccccc1 (stereo not drawn) 12.6 µM [inhibitor, single point]
O=C(CCN1C(=O)/C(=C/c2ccc(F)cc2)SC1=S)NCCc1ccc(O)cc1 3.16 µM [inhibitor, partial curve, poor fit]
O=C(NCCn1ccc2ccccc21)c1ccc2c(c1)OCO2 10 µM [inhibitor, single point]
O=C(Nc1ccccc1)Nc1ccc(F)c([N+](=O)[O-])c1 15.8 µM [inhibitor, single point]
Cc1ccccc1NC(=O)C1C2CCCC1C2c1ccccc1 (stereo not drawn) 11.2 µM [inhibitor, partial curve, poor fit]
CN(C(=O)COc1nnc(-c2cccs2)c(-c2cccs2)n1)c1ccccc1 28.2 µM [inhibitor, single point]
Cc1c(C)n(Cc2ccccc2)c2ccc(C(=O)OCCCN(C)C)cc12 1.41 µM [inhibitor, full curve, poor fit]

Activity change, negative = inhibition, inconclusive:
CCC(C)Nc1nc(N)c([N+](=O)[O-])c(N2CCCCCC2)n1 (stereo not drawn) -79.6% [inhibitor]

Activity change, negative = inhibition, inactive:
CS(=O)(=O)c1ccc(C(=O)OCc2nnc(-c3ccc(Cl)cc3)o2)cc1[N+](=O)[O-] -9.07% [at 0.307 µM]
